{"source": "ChEMBL document CHEMBL4888484", "about": "“Replenishing the malaria drug discovery pipeline: Screening and hit evaluation of the MMV Hit Generation Library 1 (HGL1) against asexual blood stage Plasmodium falciparum ,using a nano luciferase reporter read-out” (2022)", "note": "Screen size: about 150,000 compounds; about 540 (0.36%) showed an effect of 50% or more. Some of the results follow."}
{"test_system": "Plasmodium falciparum", "experiment": "Primary screen in NF54 nanoGlo assay, in single point, at 2uM, 72h; a lower Z score goes with more inhibition", "format": "functional, Erythrocyte", "conditions": "timepoint 72 hour", "units": {"% Inhibition": "%"}}
{"smiles": "Cc1cnc(N)c(S(=O)(=O)N(C)Cc2nnc[nH]2)c1", "% Inhibition": -11, "Z score": 1.85}
{"smiles": "O=C(Cn1cnc2nc(N3CCCC3)sc2c1=O)NCc1ccc2c(c1)OCO2", "% Inhibition": -1, "Z score": 0.2}
{"smiles": "O=C(CN1CCC(NC(=O)COc2ccc(Br)cc2)CC1)Nc1ccccc1", "% Inhibition": -17, "Z score": 1.59}
{"smiles": "O=C(c1ccccc1-c1ccccc1)N1CCCn2nc([C@@H](O)CO)cc2C1", "% Inhibition": -10, "Z score": 1.93}
{"smiles": "Cc1nc2c(o1)CCCC2NCC(c1ccco1)N1CCCC1", "note": "(stereo not drawn)", "% Inhibition": 3, "Z score": -0.49}
{"smiles": "CC(NC(=O)Nc1ccc2c(c1)OCO2)C1CCCO1", "note": "(stereo not drawn)", "% Inhibition": -6, "Z score": 0.76}
{"smiles": "Cn1cc2c(n1)c(=O)n(Cc1ccc(F)cc1)c(=O)n2CC(=O)Nc1ccc2c(c1)OCO2", "% Inhibition": 7, "Z score": -0.96}
{"smiles": "CC[C@H](NC(=O)Nc1ccccc1)c1ncnn1CC", "% Inhibition": -9, "Z score": 0.78}
{"smiles": "Cc1ccc(C(=O)c2ccc(Br)cc2)cc1S(=O)(=O)Nc1cccnc1", "% Inhibition": -44, "Z score": 5.19}
{"smiles": "COc1cc(N2CCC3(CCC(=O)N(CCc4ccncc4)C3)CC2)nc(N)n1", "% Inhibition": -4, "Z score": 0.6}
{"smiles": "Cc1nnc(CN(C)Cc2cscn2)o1", "% Inhibition": -8, "Z score": 1.26}
{"smiles": "Cc1ccc(NC(=O)C[C@@H]2OCCc3ccsc32)c(-c2nc(C3CC3)no2)c1", "% Inhibition": -10, "Z score": 1.76}
{"smiles": "COc1cccn(Cc2noc(C3CCCC3)n2)c1=O", "% Inhibition": -17, "Z score": 2.62}
{"smiles": "CCOC(=O)N1CC[C@H](NCc2ccc(Br)o2)C1", "% Inhibition": -13, "Z score": 1.88}
{"smiles": "CCN(C)C1(CNC(=O)Nc2ccc(C(N)=O)c(Cl)c2)CCCC1", "% Inhibition": -1, "Z score": 0.13}
{"smiles": "OCc1cc(CC2(NCc3cccc4c3OCO4)COC2)no1", "% Inhibition": -5, "Z score": 0.82}
{"smiles": "Cn1cc(S(=O)(=O)Nc2nc3ccccc3nc2N2CCc3ccccc3C2)cn1", "% Inhibition": 2, "Z score": -0.27}
{"smiles": "NC(=O)Cn1ccnc1[C@H]1CCCN(C(=O)c2ncc(F)cc2F)C1", "% Inhibition": -2, "Z score": 0.35}
{"smiles": "Cc1ccc(NS(=O)(=O)C[C@H]2CCCCO2)cc1-c1ncco1", "% Inhibition": 5, "Z score": -0.61}
{"smiles": "O=C(NCCc1csc(-n2cccn2)n1)c1ccccc1", "% Inhibition": 3, "Z score": -0.39}
{"smiles": "CCC[C@H]1C(=O)NCCN1C(=O)c1ccc(-n2cccn2)cc1", "% Inhibition": -13, "Z score": 2.03}
{"smiles": "COc1ccc(C2=[N+]([O-])C(C)(C)C(C)(C)[N+]([O-])=C2)cc1", "% Inhibition": -8, "Z score": 1.15}
{"smiles": "CC(C)CCOc1ccc(C(C)NC(=O)[C@@H]2CCCN2C(=O)NC(C)C)cc1", "note": "(stereo partly drawn)", "% Inhibition": -8, "Z score": 0.81}
{"smiles": "CN1CCCC[C@H]1C(=O)NCCc1cccc(Cl)c1", "% Inhibition": -11, "Z score": 2.17}
{"smiles": "O[C@H]1[C@H](NCc2ccccc2)[C@H]2CO[C@H](O2)[C@@H]1n1cncn1", "% Inhibition": 31, "Z score": -3.53}
{"smiles": "CCN(CC(=O)NCc1cccs1)C(=O)C(C)(C)Oc1ccc(Cl)cc1", "% Inhibition": -15, "Z score": 1.75}
{"smiles": "Cc1cc(C(=O)N(C)C2C3CCOC3C2(C)C)on1", "note": "(stereo not drawn)", "% Inhibition": -10, "Z score": 1.43}
{"smiles": "Cc1ccnc(CNc2cccc(F)c2)n1", "% Inhibition": -13, "Z score": 1.9}
{"smiles": "CCN(C(=O)c1ccccc1N1CCC(=O)NC1=O)[C@H]1COC[C@@H]1O", "% Inhibition": -12, "Z score": 2.24}
{"smiles": "Cc1c(C(=O)N2CCCCCC2)cnn1-c1cc(-c2nc(C(C)(C)C)no2)ccn1", "% Inhibition": -7, "Z score": 1.04}
{"smiles": "CCNS(=O)(=O)CCNC(=O)[C@@H](C)CC1CCCC1", "% Inhibition": -7, "Z score": 0.89}
{"smiles": "C=CCNC(=O)c1coc(COc2ccc3c(c2)[C@H](c2ccc(F)cc2)N(C(=O)C(C)C)CC3)n1", "% Inhibition": -25, "Z score": 4.81}
{"smiles": "Cc1ccc2nc(-c3ccsc3)c(NC3CCCC3)n2c1", "% Inhibition": -2, "Z score": 0.28}
{"smiles": "CC(C)Cn1nccc1C(=O)N1C[C@H](Cc2ccccc2)[C@@H](O)C1", "% Inhibition": -13, "Z score": 1.32}
{"smiles": "Cc1cc(Cl)ccc1OCC(=O)Nc1nc2[nH]c(-c3ccccc3)cc(=O)n2n1", "% Inhibition": -6, "Z score": 0.82}
{"smiles": "O=C(Cn1ccnn1)N(C1CCCCC1)[C@H]1CCS(=O)(=O)C1", "% Inhibition": 21, "Z score": -2.73}
{"smiles": "O=C(c1ccccn1)N1CCc2[nH]c(-c3cn[nH]c3)nc2C1", "% Inhibition": -12, "Z score": 1.73}
{"smiles": "COC(=O)CN1CCCN(C(=O)Nc2c(C)n[nH]c2C)CC1", "% Inhibition": -7, "Z score": 1.02}
{"smiles": "COC1CCCN(c2cc(C)nc(N3CCCC(OC)C3)c2C#N)C1", "note": "(stereo not drawn)", "% Inhibition": -20, "Z score": 2.27}
{"smiles": "CCC1(CC)CNC(=O)[C@H]1NC(=O)c1occ2c1CCOC2", "% Inhibition": 7, "Z score": -0.86}
{"smiles": "CN(C)CCNCc1ccc(F)cc1F", "% Inhibition": -7, "Z score": 1.23}
{"smiles": "Cc1cnc([C@H](C)N2CCC(NS(=O)(=O)c3cccs3)CC2)cn1", "% Inhibition": -1, "Z score": 0.12}
{"smiles": "Cc1c(Cl)cccc1NC(=O)c1cc2nccc(-c3cnn(C)c3C)n2n1", "% Inhibition": -12, "Z score": 1.6}
{"smiles": "Cc1cccc(NC(=O)c2cccnc2-c2cccs2)c1C", "% Inhibition": -7, "Z score": 1.09}
{"smiles": "CNc1nc(C)cc(C(=O)N2CC3(CCCCC3)[C@@H]2C(C)C)n1", "% Inhibition": -9, "Z score": 1.34}
{"smiles": "O=C(Cn1cncn1)N(c1nc2ccccc2o1)C1CC1", "% Inhibition": 10, "Z score": -1.89}
{"smiles": "CC[C@H](C)n1nc(NC(=O)N2CCC3(CCNCC3)C2)cc1C", "% Inhibition": -7, "Z score": 1.02}
{"smiles": "c1nc(NCc2ccc3c(c2)COC3)c2cn[nH]c2n1", "% Inhibition": -4, "Z score": 0.7}
{"smiles": "CCN1CCN(c2ccc(C(=O)Nc3cccc(-c4ccc5c(c4)CCO5)c3)cc2F)CC1", "% Inhibition": 18, "Z score": -2.82}
{"smiles": "CC(C)(C(=O)NCC[C@H]1CCOC1)N1CCCC1", "% Inhibition": -1, "Z score": 0.08}
{"smiles": "CCN(CC)c1nc(-c2ccccc2)c2ccc(Cl)cc2n1", "% Inhibition": 7, "Z score": -0.95}
{"smiles": "CCc1c(N2CCN(c3ccccc3)CC2)[nH]c(=O)[nH]c1=O", "% Inhibition": 31, "Z score": -3.96}
{"smiles": "Cc1ccc(C)c(-c2ccc3nc(-c4ccc(Cl)cc4)c(CN4CCN(C(=O)C5CCCC5)CC4)n3c2)c1", "% Inhibition": -16, "Z score": 1.59}
{"smiles": "Nc1ncnc(N2CCC[C@H](CNC(=O)c3ccccc3)C2)c1Cl", "% Inhibition": 1, "Z score": -0.15}
{"smiles": "COc1c(C)cnc(COc2c(C)nn(C)c2C)c1C", "% Inhibition": -4, "Z score": 0.57}
{"smiles": "CN1CC[C@@]2(CCCN(C(=O)c3ccc(-c4ccccc4)[nH]3)C2)C1", "% Inhibition": 16, "Z score": -2.06}
{"smiles": "CCOc1ncccc1CNC(=O)c1cccnc1O", "% Inhibition": 3, "Z score": -0.37}
{"smiles": "O=C(NC[C@H](O)c1cccnc1)c1ncoc1C1CC1", "% Inhibition": -7, "Z score": 0.94}
{"smiles": "CC(C)CO[C@@H](C)C(=O)NCCCc1nc(-c2ccccn2)cs1", "% Inhibition": -11, "Z score": 1.18}
{"smiles": "COCCC(C)(C)NC(=O)c1ccc(O)cc1F", "% Inhibition": -7, "Z score": 1.21}
{"smiles": "CC(C)c1cc(C(=O)N(Cc2ccco2)C2CCN(C)CC2)on1", "% Inhibition": -2, "Z score": 0.25}
{"smiles": "Cc1c(NS(=O)(=O)c2ccc(Cl)cc2)c(-n2cnnc2)nn1C", "% Inhibition": 39, "Z score": -5.22}
{"smiles": "Cc1ocnc1C(=O)Nc1ccc(Oc2nncc3ccccc23)cc1", "% Inhibition": -6, "Z score": 0.83}
{"smiles": "Cn1ncc(Br)c1C(=O)N1CCc2ccccc2C1", "% Inhibition": 35, "Z score": -1.06}
{"smiles": "Cc1sc(C(=O)NC[C@@H](C)O)cc1CS(C)(=O)=O", "% Inhibition": -15, "Z score": 2.01}
{"smiles": "O=C(N[C@@H]1COC2(CCCCC2)C1)c1ccc2c(c1)OCO2", "% Inhibition": -10, "Z score": 0.93}
{"smiles": "O=C(CCc1cscn1)Nc1cc(CCc2ccccc2)n[nH]1", "% Inhibition": -12, "Z score": 2.31}
{"smiles": "Cc1ccc(-c2nn(-c3ccccc3)cc2C(=O)N(C)Cc2nc3ccccc3c(=O)[nH]2)o1", "% Inhibition": -4, "Z score": 0.5}
{"smiles": "O=S(=O)(Cc1ccccc1)NCCn1ccnc1-c1ncccn1", "% Inhibition": -14, "Z score": 1.76}
{"smiles": "Cc1cccc(-c2noc(CCc3nc4ccccc4o3)n2)c1F", "% Inhibition": 4, "Z score": -0.56}
{"smiles": "CCOC(=O)Cn1nc2c(S(=O)(=O)N3CCCCCC3)cccn2c1=O", "% Inhibition": 0, "Z score": 0.06}
{"smiles": "Cc1cccc(S(=O)(=O)Nc2cccc(CCc3nc4ccccc4n3C)c2)c1", "% Inhibition": -8, "Z score": 0.99}
{"smiles": "CC1(C)O[C@@H]2C[C@@](OCc3ccccc3C#N)(C(=O)NCC3CC3)CC(OCc3ccccc3F)[C@@H]2O1", "note": "(stereo partly drawn)", "% Inhibition": -6, "Z score": 0.7}
{"smiles": "COCCN1C(=O)CC(CC(=O)N(CC2CCC2)CC2CCCO2)(c2ccccc2F)C1=O", "note": "(stereo not drawn)", "% Inhibition": -3, "Z score": 0.54}
{"smiles": "CCN(C)C(=O)c1cccc(Nc2c(Oc3ccccc3F)cnn(-c3ccc(C)cc3)c2=O)c1", "% Inhibition": -9, "Z score": 1.14}
{"smiles": "Cc1nc(N(C)C)c(C#N)c(C)c1Br", "% Inhibition": -9, "Z score": 1.79}
{"smiles": "O=C(NCCN1C(=O)COC1=O)c1cncc(F)c1", "% Inhibition": 7, "Z score": -0.97}
{"smiles": "CN(Cc1ccccc1)C(=O)C[C@@H]1O[C@H](CNS(=O)(=O)c2ccccc2)[C@@H](O)[C@H]1O", "% Inhibition": 3, "Z score": -0.55}
{"smiles": "O=C(c1ccc2c(c1)OCO2)N1CC(N2C(=O)CNC2=O)C1", "% Inhibition": -9, "Z score": 1.75}
{"smiles": "NC(=O)[C@]1(NC(=O)c2coc3cc(F)ccc23)CCOC1", "% Inhibition": -13, "Z score": 2.1}
{"smiles": "O=C1C[C@H](c2noc(-c3onc4c3CCCC4)n2)CN1C1CC1", "% Inhibition": 1, "Z score": -0.13}
{"smiles": "CN(C)C(=O)N1CCC2(CC1)CC(=O)N(Cc1ccc(F)c(F)c1)C2", "% Inhibition": 2, "Z score": -0.42}
{"smiles": "Cn1cc(CCN2CCC3(CCC(=O)N(CCc4ccncc4)C3)CC2)cn1", "% Inhibition": 1, "Z score": -0.09}
{"smiles": "CO[C@@]12CC[C@@H](O)C[C@@H]1N(C(=O)CCOc1ccccc1C)CC2", "% Inhibition": -24, "Z score": 2.41}
